Values joined by “and” are separate entries in the source; they are usually repeats but may differ in a detail not shown here. Equal entries are not always repeated. In all, about 390,000 compounds went through this assay and about 17,000 (4.4%) were called active. Inconclusive results, whose numbers are uncertain, are shown with a selection of clear calls. Calls come from the whole dose curve; as a rule, active = well fitted inhibition curve with a large enough effect; inconclusive = small, poorly fitted or top-dose-only effect; inactive = no such curve, though single readings can be large or run the other way. A potency beside an inconclusive call is a rough fit, not a confirmed value.
Each molecule was assayed against Lysine-specific demethylase 4A (Homo sapiens) (UniProt O75164) (assay: qHTS Assay for Inhibitors of JMJD2A-Tudor Domain). Conditions: AlphaScreen JMJD2A-Tudor / H3K4me3 peptide binding; series mostly up to 114 µM.
Note: nearly all actives have a fitted effect of over 50% in size.
Potency is the fitted concentration of half-maximal effect; tags give direction and shape of the fitted curve.

Chain of UniProt O75164 (O75164 whole entry, looked up, the tested form may be a part): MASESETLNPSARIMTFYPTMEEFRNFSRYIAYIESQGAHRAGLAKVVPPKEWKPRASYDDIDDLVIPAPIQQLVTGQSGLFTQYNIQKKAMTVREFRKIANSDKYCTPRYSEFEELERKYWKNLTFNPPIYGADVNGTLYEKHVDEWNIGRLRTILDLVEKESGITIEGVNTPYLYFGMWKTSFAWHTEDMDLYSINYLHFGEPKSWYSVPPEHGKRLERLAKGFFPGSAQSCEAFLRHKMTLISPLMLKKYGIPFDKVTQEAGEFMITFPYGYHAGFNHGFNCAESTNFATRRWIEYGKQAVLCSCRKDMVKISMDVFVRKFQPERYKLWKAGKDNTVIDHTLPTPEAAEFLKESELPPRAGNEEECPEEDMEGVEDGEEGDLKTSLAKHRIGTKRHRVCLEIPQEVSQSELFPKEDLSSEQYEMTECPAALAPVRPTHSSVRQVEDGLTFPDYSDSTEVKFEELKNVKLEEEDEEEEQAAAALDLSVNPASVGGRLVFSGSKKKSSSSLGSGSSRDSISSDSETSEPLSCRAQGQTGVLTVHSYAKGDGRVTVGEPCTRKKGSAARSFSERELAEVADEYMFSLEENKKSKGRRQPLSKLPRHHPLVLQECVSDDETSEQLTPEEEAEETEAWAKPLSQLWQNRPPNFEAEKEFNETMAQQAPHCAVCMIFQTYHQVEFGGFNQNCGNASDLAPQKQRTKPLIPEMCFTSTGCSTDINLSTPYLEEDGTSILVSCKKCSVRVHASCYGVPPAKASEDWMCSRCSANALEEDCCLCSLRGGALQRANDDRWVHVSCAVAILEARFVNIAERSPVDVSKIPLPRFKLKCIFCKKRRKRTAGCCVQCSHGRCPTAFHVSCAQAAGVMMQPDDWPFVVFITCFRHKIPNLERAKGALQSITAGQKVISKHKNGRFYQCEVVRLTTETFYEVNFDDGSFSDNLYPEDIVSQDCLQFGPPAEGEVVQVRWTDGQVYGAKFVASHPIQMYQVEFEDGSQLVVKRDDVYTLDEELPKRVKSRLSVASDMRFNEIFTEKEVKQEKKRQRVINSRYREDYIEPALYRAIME

Structure (SMILES)	Potency
COc1ccc(N2CC(C)Cn3c2nc2c3c(=O)n(Cc3ccc(C)cc3)c(=O)n2C)c(OC)c1 (stereo not drawn)	inconclusive: 15.8 µM [inhibitor, full curve]
C=CCN1C(=O)/C(=C/c2ccc(OC(C)=O)c(OCC)c2[N+](=O)[O-])SC1=S	active: 25.1 µM
COc1ccc(NC2c3ncccc3C(=O)N2Cc2ccccc2)c(OC)c1 (stereo not drawn)	active: 25.1 µM
O=C(N/N=C1\CC(c2ccccc2)Oc2ccccc21)c1ccc(O)cc1 (stereo not drawn)	inconclusive: 25.1 µM [inhibitor, partial curve]
CN(C)S(=O)(=O)c1cccc(NC(=S)NC2CCCCC2)c1	inactive
CC(=O)Nc1ccc(NC(=O)c2cc3sccc3n2Cc2ccc(Cl)cc2)cc1	inactive
COc1ccccc1NC(=O)CSc1nnc(Cc2cccn2C)n1CCc1ccccc1	inconclusive: 63.1 µM [inhibitor, partial curve]
CCc1ccc(-n2c(SCc3ccccc3C)nc3[nH]ncc3c2=O)cc1	inconclusive: 50.1 µM [inhibitor, partial curve]
Cc1cc(-c2nsc(=O)o2)c(S(C)(=O)=O)s1	inconclusive: 17.8 µM [inhibitor, full curve]
COc1ccc(OC)c(-c2csc(NC(=O)CN3C(=O)C4CCCCC4C3=O)n2)c1 (stereo not drawn)	inconclusive: 35.5 µM [inhibitor, partial curve]
COC(=O)c1ccc(Cn2c(SCc3ccccc3)nc3ccncc32)cc1	inactive
Cc1cccc(-n2c(Cc3ccccc3)nnc2SCc2ccc([N+](=O)[O-])cc2)c1	inconclusive: 56.2 µM [inhibitor, partial curve]
Cc1ccccc1[C@@H]1C(C#N)=C(N)S[C@H]1C(=O)c1ccccc1	inconclusive: 44.7 µM [inhibitor, partial curve]
CCOc1ccc(/C=C2\SC(=S)N(NS(=O)(=O)c3ccc(C)cc3)C2=O)cc1OC	inconclusive: 25.1 µM [inhibitor, partial curve]
C[C@@H]1C(=O)N(S(=O)(=O)c2ccc([N+](=O)[O-])cc2)[C@H]1c1ccc(F)cc1	inactive
Cc1ccc(NCc2ccccc2O)c(C)c1	inconclusive: 56.2 µM [inhibitor, partial curve]
COc1cc(NC(=O)c2cc([N+](=O)[O-])ccc2NC(=O)CNCc2ccccn2)cc(OC)c1	active: 79.4 µM
CCc1ccc(-n2nc(C)c3c(C(=O)Nc4cc(C)c(Cl)cc4OC)cc(C)nc32)cc1	inactive
Cc1ccc(SCCN2CCC(O)CCC2=O)cc1 (stereo not drawn)	inactive
COc1ccc(C2Nc3ccccc3C(=O)N2Cc2ccccc2)cc1COc1ccc(C(N)=O)cc1 (stereo not drawn)	inconclusive: 63.1 µM [inhibitor, partial curve, poor fit]
CCOC(=O)c1[nH]c(C)c(/C(C)=N\O)c1C	inactive
COc1ccc(-c2csc(Nc3ccc(C)cn3)n2)cc1OC	inconclusive: 44.7 µM [inhibitor, partial curve]
COc1cc(CN2CCCN(C)CC2)c([N+](=O)[O-])cc1OC	inconclusive: 79.4 µM [inhibitor, partial curve]
COc1ccccc1N1CCN(CCc2n[nH]c(=S)n2-c2ccccc2)CC1	active: 17.8 µM

Structure (SMILES)	Potency
COc1ccc(-c2cc(C(=O)Nc3c(C)n(C)n(-c4ccccc4)c3=O)c3ccccc3n2)c(OC)c1	inconclusive: 100 µM [inhibitor, single point]
CC1=NC(=O)C(N=Nc2cccc(O)c2)N1c1ccccc1 (stereo not drawn)	active: 31.6 µM
O[C@@H]1COC(Nc2ccc(N=Nc3ccccc3)cc2)C[C@@H]1O (stereo partly drawn)	inconclusive: 44.7 µM [inhibitor, partial curve]
COc1cc(C(=S)N2CCN(c3cccc(Cl)c3)CC2)ccc1O	active: 63.1 µM
Cc1ccc(NS(=O)(=O)c2cc(C(=O)N3CCN(CCO)CC3)ccc2C)cc1	active: 79.4 µM
CCc1ccc(-c2cn3c(n2)SCC3)cc1	inactive
O=C(O)c1cc(Br)ccn1	active: 3.16 µM
CCS(=O)(=O)N1CCN(Cc2c[nH]c3ccccc23)CC1	active: 1.12 µM
N/C(=N\O)c1ccc([N+](=O)[O-])s1	inactive
Oc1c(Br)cc(C2N=C(c3ccccc3Cl)NO2)cc1Br (stereo not drawn)	active: 39.8 µM
CCCN1C(=O)/C(=C/c2ccc(C)o2)SC1=Nc1ccc(OCC)cc1	inconclusive: 35.5 µM [inhibitor, partial curve]
S=c1[nH]c2cnccc2n1Cc1ccccc1	active: 17.8 µM
Cc1ccc(C)c(CN2CCC(n3nccc3NC(=O)C3CCCC3)CC2)c1	inactive
CCOc1ccc(C(=O)Nc2ccccc2OCc2cc(=O)n3ccccc3n2)cc1	inactive
C=CCN=c1scc(-c2ccccc2)n1/N=C/c1ccccn1	active: 50.1 µM and active: 44.7 µM
O=C(CCCN1C(=O)/C(=C\c2ccccc2)SC1=S)Nc1ccc(O)cc1	inconclusive: 15.8 µM [inhibitor, full curve]
Cc1cc(OC(=O)c2ccccc2Cl)c([N+](=O)[O-])c(=O)[nH]1	inactive
CC(=O)N1c2ccc(S(=O)(=O)N3CCC(C(=O)NCc4ccc(N(C)C)cc4)CC3)cc2CC1C (stereo not drawn)	inconclusive: 25.1 µM [inhibitor, full curve, poor fit]
CSc1ncc(C(=O)NCc2ccc(C)cc2)c(-c2ccccc2)n1	inactive
O=C(N/N=C/c1ccncc1)c1ccc(NC(=O)c2cccc(Cl)c2)cc1	inconclusive: 56.2 µM [inhibitor, partial curve]
Cc1cc(C)n(-c2ccc(C(=O)Nc3cc(S(=O)(=O)N(C)C)ccc3Cl)cc2)n1	inconclusive: 70.8 µM [inhibitor, single point]
CCN(c1ccc(NC(=O)c2ccc(Cl)nc2)cc1)C(C)C	inactive
O=C1CSC(=S)N1/N=C/c1c(F)cccc1F	inconclusive: 89.1 µM [inhibitor, partial curve]
CC1(C)CC(=O)c2sc(NC(=O)CN3CCOCC3)nc2C1	inconclusive: 50.1 µM [inhibitor, partial curve]

— PubChem BioAssay AID504339 (National Center for Advancing Translational Sciences (NCATS), 2011)
